Measured values from PubChem BioAssay AID1345082 (National Center for Advancing Translational Sciences (NCATS), 2018).
Screen size: about 94,000 compounds; about 4,000 (4.3%) were called active. This list was built around the results that the source calls inconclusive (neither active nor inactive); the mix of calls is not that of the screen. Calls come from the whole dose curve; as a rule, active = well fitted inhibition curve with a large enough effect; inconclusive = small, poorly fitted or top-dose-only effect; inactive = no such curve, though single readings can be large or run the other way. A potency beside an inconclusive call is a rough fit, not a confirmed value.

test: Cytotoxic Profiling in NIH 3T3 Cell Line of Diverse Libraries Using Quantitative High-Throughput Screening; conditions: NIH 3T3 viability, CellTiter-Glo ATP luminescence, 48-72 h; activity change, negative = cytotoxicity: at 96.7 µM (top of the series) unless noted; series mostly up to 96.7 µM; note: nearly all actives have a fitted effect of over 55% in size
How it was run: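 Viability of NIH 3T3 cells after 48 or 72 hr compound treatment at 37 °C was assessed by CellTiter-Glo, with luminescence imaged following a 10 min room-temperature step.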
% is set by controls: 0 for no effect and ±100 for the full control effect; potency is the fitted concentration of half-maximal effect; tags give direction and shape of the fitted curve.

SMILES	Potency	activity change, negative = cytotoxicity	outcome
O=C(Nc1cccc(Cl)c1)C1CCc2sc(C(=O)N3CCCC3)cc2C1 (centres undefined)	active: 28.2 µM		
O=C(O)[C@H]1C[C@@H](C(=O)NCc2ccncc2)CN(C(=O)CC2CCCC2)C1		inactive: -1.76%	
C=CCOCC(O)CN1CCC(=O)N(Cc2ccccc2)Cc2c1ccc(OC)c2OCC=C (centres undefined)	inconclusive: 50.1 µM [inhibitor, partial curve, poor fit]		
Cc1ccc(Nc2ccnc(N3CCC(NC(=O)C(C)(C)C)CC3)n2)cc1	inconclusive: 50.1 µM [inhibitor, partial curve, poor fit]		
CC(Cn1ccnc1-c1cc2n(n1)CCCNC2)N1CCN(C)CC1 (centres undefined)		inactive: 3.93%	
CCC(CC)NC(=O)C1CCN(c2cn[nH]c(=O)c2)C1 (centres undefined)			inactive
O=C(NC1CCN(C(=O)c2ccc(-c3cncnc3)cc2)CC1)c1ccc(C(F)(F)F)cc1	inconclusive: 28.2 µM [inhibitor, partial curve, poor fit]		
CCc1ccc(N2CC(c3noc(-c4cc(F)cc(F)c4)n3)CC2=O)cc1 (centres undefined)	inconclusive: 39.8 µM [inhibitor, partial curve, poor fit]		
O=C(NC1CCc2n[nH]c(=O)n2CC1)c1ccc2ccccc2n1 (centres undefined)		inactive: -0.614%	
O=C(Nc1cccc(C(F)(F)F)c1)O[C@@H]1CO[C@H]2[C@@H]1OC[C@@H]2Nc1nccc(-c2ccc3c(c2)OCO3)n1	inconclusive: 50.1 µM [inhibitor, partial curve, poor fit]		
CC(=O)c1ccc(NC(=O)N2Cc3[nH]cnc3C[C@H]2c2nc(-c3ccc(F)cc3)no2)cc1	active: 89.1 µM		
C[C@]1(NC(=O)c2cnccn2)OC[C@@H]2CC[C@H](C(=O)NCc3ccc(OC(F)(F)F)cc3)N2C1=O	inconclusive: 70.8 µM [inhibitor, single point]		
Cc1cc(NC(=O)c2ccc3c(c2)N(C)C2CCCCN2C3=O)ccc1F (centres undefined)	inconclusive: 12.6 µM [inhibitor, partial curve, poor fit]		
CC(C)C[C@@H]1N[C@H](C(=O)NCc2ccc(C#N)cc2)Cc2c[nH]c3cccc1c23	active: 25.1 µM		
COc1cccc(-c2cc(C(=O)NC3CC3)c3cnn(C)c3n2)c1	inconclusive: 44.7 µM [inhibitor, partial curve, poor fit]		
COc1ccc(C2Cn3nnc(C(=O)N4CCN(C(=O)c5ccc(C)s5)CC4)c3CO2)cc1 (centres undefined)	inconclusive: 39.8 µM [inhibitor, partial curve, poor fit]		
Cc1cc(=O)n(CC(=O)Nc2cccc(C#N)c2)c(-c2ccc(F)cc2)n1	inconclusive: 50.1 µM [inhibitor, partial curve, poor fit]		
CCCCNC(=O)C1CCc2sc(C(=O)N3CCCCC3)cc2C1 (centres undefined)	inconclusive: 50.1 µM [inhibitor, partial curve, poor fit]		
O=C1NC(C(=O)N2CCOCC2)CN1Cc1ccccc1 (centres undefined)			inactive [at 138 µM]
Cc1nc(-c2ccc(F)cc2)n(Cc2cccc(C(F)(F)F)c2)c(=O)c1CCO	inconclusive: 44.7 µM [inhibitor, partial curve, poor fit]		
Cc1noc(C)c1[S+](=O)([O-])N1CCc2nc(-c3ccccc3)nc(-c3ccc(Cl)cc3)c2C1			inactive
Cn1cc(C#N)cc1C(=O)N1C[C@H](CO)C[C@H](CN2CCOCC2)C1		inactive: -6.72%	

SMILES	Potency	activity change, negative = cytotoxicity	outcome
CCCNC(=O)c1cccc2c1CCN2S(=O)(=O)c1ccc(C)cc1	inconclusive: 35.5 µM [inhibitor, partial curve, poor fit]		
CCn1cc(-c2nc3cc(S(=O)(=O)NC(C)C)ccc3n2C(C)C)cn1	inconclusive: 79.4 µM [inhibitor, partial curve, poor fit]		
CCn1ncc(N2CCCC(CC(=O)NCc3ccc(Cl)cc3)C2)cc1=O (centres undefined)	inconclusive: 50.1 µM [inhibitor, partial curve, poor fit]		
CN(C(=O)Cn1cccc1-c1nc(-c2ccc3c(c2)OCO3)no1)c1ccccc1		inactive: -29.5%	
COc1cccc(CC(=O)N2CCCC(c3noc(COc4ccccc4F)n3)C2)c1 (centres undefined)	inconclusive: 35.5 µM [inhibitor, partial curve]		
COc1ccc(-c2cc(N3CCCC(NC(=O)Cc4ccccc4)C3)n[nH]2)cc1 (centres undefined)	inconclusive: 50.1 µM [inhibitor, single point]		
COc1ccc(NC(=O)CN2C(=O)NC3(CCOCC3)C2=O)cc1OC		inactive: -1.41%	
COc1cccc(C(=O)N2CCc3onc(-c4cccc(F)c4)c3C2)c1OC	inconclusive: 31.6 µM [inhibitor, full curve, poor fit]		
COc1cccc(-c2cc3c(ccn3C(C)C)c(C(=O)NCc3c(C)cc(C)[nH]c3=O)n2)c1	inconclusive: 14.1 µM [inhibitor, full curve, poor fit]		
O=C(NCc1cccc(Cl)c1)c1ccc2nnc(-c3cccnc3)n2c1	inconclusive: 44.7 µM [inhibitor, partial curve, poor fit]		
Cc1noc(-c2cccs2)c1C(=O)NCc1ccccc1Cl	inconclusive: 28.2 µM [inhibitor, partial curve]		
COc1ccc(-c2noc(-c3cccn3CC(=O)N(C)c3ccc(F)cc3)n2)cc1F	inconclusive: 25.1 µM [inhibitor, full curve]		
O=C(c1cc(Cl)ccc1F)N1CCC(c2n[nH]c(=O)n2-c2ccccc2)CC1	inconclusive: 50.1 µM [inhibitor, partial curve, poor fit]		
COc1cccc(-c2cc3c(ccn3C)c(C(=O)NCc3c(C)cc(C)[nH]c3=O)n2)c1	inconclusive: 50.1 µM [inhibitor, partial curve, poor fit]		
COc1ccc(C[C@H](NC(=O)C2=C[C@@H](NC(=O)Nc3ccc(C)cc3)[C@@H](O)[C@H](O)C2)C(N)=O)cc1		inactive: -2.46%	
Cc1nc(N2CCC(C(=O)NCc3ccc(C(C)C)cc3)CC2)cc(C(F)(F)F)n1	active: 25.1 µM		
Cc1cccc(-c2nocc2CCC(=O)NCc2ccc(F)cc2F)c1	inconclusive: 70.8 µM [inhibitor, single point]		
Cc1nn2c(NCCc3ncc[nH]3)cc(-c3ccccc3)nc2c1C	inconclusive: 50.1 µM [inhibitor, partial curve, poor fit]		
COCC(=O)N(C1CCOCC1)C1CCN(C(=O)Cc2ccccc2Cl)CC1		inactive: 1.85%	
Cc1ccccc1N1Cc2c(NCCc3ccc(F)cc3)ncnc2N(C)CC1=O	inconclusive: 50.1 µM [inhibitor, partial curve, poor fit]		
FC1CCN(Cc2cn(Cc3ccccc3)nc2-c2cc3ccccc3o2)CC1	inconclusive: 44.7 µM [inhibitor, partial curve, poor fit]		
Cc1ccccc1CN1Cc2nc(-c3ccsc3)ccc2OCC1=O	inconclusive: 79.4 µM [inhibitor, partial curve]		

SMILES	Potency	activity change, negative = cytotoxicity	outcome
CCC(=O)N(C1CCOCC1)C1CCN(S(=O)(=O)c2ccc(F)cc2F)CC1		inactive: -12.4%	
O=C1CCC2(CCNCC2)CN1CCCNc1cccnc1		inactive: -5.43%	
COCCCNC(=O)c1ccc2oc(-c3ccnc(Cl)c3)nc2c1	inconclusive: 44.7 µM [inhibitor, partial curve, poor fit]		
COc1ccc(-c2nn(-c3ccc(C)cc3C)c(OC(C)=O)c2-c2ccc(NC(C)=O)cc2)c(OC)c1	inconclusive: 50.1 µM [inhibitor, partial curve, poor fit]		
CN(Cc1ccc(F)cc1)c1ccc2ncc(Nc3ccc4c(c3)OCCO4)n2n1	inconclusive: 28.2 µM [inhibitor, full curve]		
Cc1oc(-c2cccc(Oc3ccccc3)c2)nc1CN1CCOC(CCN)C1 (centres undefined)	active: 25.1 µM		
O=C(Cc1cccc(F)c1)N1CCC(Cc2nc(-c3cnccn3)no2)CC1	inconclusive: 44.7 µM [inhibitor, partial curve]		
Cc1ccccc1-c1ccnc(-c2nnc(C)n2C(C)C)c1	inconclusive: 39.8 µM [inhibitor, partial curve, poor fit]		
CN(c1ccccc1)c1ccc2c(n1)CN(Cc1ccccc1)C(=O)CO2	active: 79.4 µM		
Fc1ccc(CN2CCOC[C@H]2c2ncc(-c3ccc(Cl)s3)[nH]2)cc1	inconclusive: 56.2 µM [inhibitor, partial curve, poor fit]		
Cc1cc2nc3n(c(=O)c2n1CC(=O)Nc1ccc(Br)cc1F)CCC3	inconclusive: 50.1 µM [inhibitor, partial curve, poor fit]		
COc1ccc(Nc2ccnc(N3CCC(NC(=O)Nc4ccccc4)CC3)n2)cc1	inconclusive: 50.1 µM [inhibitor, partial curve, poor fit]		
O=C1Cc2c(-c3cc4ccccc4o3)n[nH]c2CN1Cc1ccccc1	inconclusive: 50.1 µM [inhibitor, partial curve]		
Cc1ccc(NC(=O)Cn2c(N3CCC(C)CC3)nc(C)cc2=O)cc1	inconclusive: 31.6 µM [inhibitor, partial curve]		
CCCc1nnc([C@H]2CCN(C(=O)COC)C2)o1			inactive [at 174 µM]
NC(=O)N1CCCC(C(=O)N2CCN(Cc3cccc(O)c3)CC2)C1 (centres undefined)			inactive
Clc1ccccc1C1Cn2cnc(-c3nc(-c4ccccc4)no3)c2CO1 (centres undefined)		inactive: -0.125%	
CCNc1ccnc(N2CCN(Cc3cccc(OC)c3)C(CCO)C2)n1 (centres undefined)		inactive: -25.3%	
Cn1ncc2c(C(=O)NCC(=O)OC(C)(C)C)cc(-c3ccccc3C(F)(F)F)nc21	inconclusive: 35.5 µM [inhibitor, partial curve, poor fit]		
COc1cccc(C(=O)NC2CCN(c3cc(-c4ccc(F)cc4)[nH]n3)CC2)c1OC	inconclusive: 44.7 µM [inhibitor, partial curve, poor fit]		
